{"source": "PubChem BioAssay AID686978", "about": "(National Center for Advancing Translational Sciences (NCATS), 2013)", "note": "Among all 420,000 compounds or so, about 64,000 (15%) were called active. Inconclusive results, whose numbers are uncertain, are shown with a selection of clear calls. The call rests on the fitted dose curve; in most records, active means well fitted inhibition curve with a large enough effect; inconclusive means small, poorly fitted or top-dose-only effect; inactive means flat fitted curve, though single readings scatter. No potency is given beside an inconclusive call; the fits are too rough. On the % scale 0 is the no-effect control and ±100 the full control effect; potency means the concentration at half of the fitted maximal effect; tags describe the fitted curve by direction and shape."}
{"test": "qHTS for Inhibitors of human tyrosyl-DNA phosphodiesterase 1 (TDP1): qHTS in cells in absence of CPT; further: nearly all actives have a fitted effect of over 55% in size", "conditions": "DT40 Tdp1-/- hTDP1 cells, no CPT, ATP luminescence, 48 h; activity change, negative = growth inhibition: at 46.2 µM (top of the series) unless noted", "how_it_was_run": "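Seeded 400 DT40-hTDP1 cells/well (vehicle DMSO, no 20 nM CPT); pinned compounds; ≥48 hr at 37 °C; CellTiter-Glo luminescence as viability measure.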"}
{"smiles": "CC(C)c1ccc(/C=N/NC(=O)c2cccc(Cl)c2)cc1", "Potency": "active: 5.8 µM"}
{"smiles": "CCN(C(=O)COc1ccccc1)C1CCCCC1", "Potency": "inconclusive [inhibitor, partial curve]"}
{"smiles": "Cc1ccc(CN2C(=O)C[C@@H](NC(=O)OCC3c4ccccc4-c4ccccc43)C/C=C\\C2c2ccc(C)cc2)cc1", "note": "(some centres undefined)", "Potency": "inconclusive [inhibitor, single point]"}
{"smiles": "Cc1cccc(OCC(=O)Nc2nc(-c3ccncc3)cs2)c1", "Potency": "inconclusive [inhibitor, single point]"}
{"smiles": "c1ccc(N/N=C(\\Cc2nc3ccccc3[nH]2)c2ccccc2)cc1", "Potency": "inconclusive [inhibitor, single point]"}
{"smiles": "COc1cccc(NS(=O)(=O)c2ccc3[nH]cc(C(=O)NCCCOC(C)C)c(=O)c3c2)c1", "Potency": "inconclusive [inhibitor, single point]"}
{"smiles": "CCNC(=O)NC(=O)CN(C)c1ccccc1", "Potency": "inactive"}
{"smiles": "CCCC(C)NC(=O)c1ccc(OCc2ccc(Cl)cc2)c(OC)c1", "note": "(centres undefined)", "Potency": "active: 8.2 µM"}
{"smiles": "CCN(CC)S(=O)(=O)c1ccc(Cl)c(C(=O)Nc2cc(C)nn2-c2ccccc2)c1", "Potency": "inconclusive [inhibitor, partial curve, poor fit]"}
{"smiles": "COc1cccc(-c2ccc(CN3C(C)C(=O)N(Cc4cn(Cc5ccco5)nn4)CCS3(=O)=O)cc2)c1OC", "note": "(centres undefined)", "Potency": "inconclusive [inhibitor, single point]"}
{"smiles": "CCn1cc(CNCc2ccc(OCC(O)CN(C)Cc3ccccc3)cc2)cn1", "note": "(centres undefined)", "Potency": "inconclusive [inhibitor, single point]"}
{"smiles": "CC1CC(C)CN(CCCNC(=O)c2csc3c2CCCC3)C1", "note": "(centres undefined)", "Potency": "inconclusive [inhibitor, single point]"}
{"smiles": "CN(C)C(=O)c1ccc(-c2nc(NCc3cccnc3)c3ccccc3n2)cc1", "Potency": "inconclusive [inhibitor, single point]"}
{"smiles": "COc1ccc(CNC(=O)C2Cc3c(-c4ccccc4)ccnc3O2)cc1OC", "note": "(centres undefined)", "Potency": "inconclusive [inhibitor, partial curve]"}
{"smiles": "CCN(CC)CCNC(=O)c1cc(S(C)(=O)=O)ccc1OC", "Potency": "inactive"}
{"smiles": "COc1ccc(S(=O)(=O)N2CCN(C3CCN(Cc4ccccc4)CC3)CC2)cc1", "Potency": "inconclusive [inhibitor, single point]"}
{"smiles": "O=C(COC(=O)COc1ccc(Br)cc1)Nc1ccc2c(c1)OCCO2", "Potency": "inactive"}
{"smiles": "COc1cc([N+](=O)[O-])cc(/C=N/NC(=O)C(C)Nc2cccc3ccccc23)c1O", "note": "(centres undefined)", "Potency": "inconclusive [inhibitor, partial curve, poor fit]"}
{"smiles": "O=C(CSc1nnc(-c2cccnc2)o1)Nc1ccccc1F", "Potency": "inconclusive [inhibitor, single point]"}
{"smiles": "COc1ccc(OC)c(/C=N/NC(=O)CN2CCSCC2)c1", "Potency": "inactive"}
{"smiles": "CCN1C(=O)[C@H]2[C@H]3CN=C(SCc4ccc(Cl)cc4)N3[C@@](Cc3ccccc3)(C(=O)OC)[C@H]2C1=O", "Potency": "active: 11.6 µM"}
{"smiles": "Cc1ccnc2c([N+](=O)[O-])cccc12", "Potency": "inconclusive [inhibitor, partial curve]"}
{"smiles": "Cc1ccc(C(=O)NNC(=O)CSc2nnc3c(n2)[nH]c2ccc(F)cc23)cc1", "Potency": "inconclusive [inhibitor, single point]"}
{"smiles": "CCCc1cc(=O)oc2cc(C)cc(OC(C)C(=O)NCc3cccnc3)c12", "note": "(centres undefined)", "Potency": "inactive"}
{"smiles": "O=C(CN1CCN(c2ccccn2)CC1)Nc1ccc([N+](=O)[O-])cc1C(=O)Nc1ccccc1F", "Potency": "active: 7.31 µM"}
{"smiles": "COc1cccc(CNC(=O)c2c(C)nn(-c3cccc(C)c3)c2-n2cccc2)c1", "Potency": "active: 14.6 µM"}
{"smiles": "CSc1ccccc1OCc1cc(C(=O)NC(C)c2cnn(C)c2)no1", "note": "(centres undefined)", "Potency": "inconclusive [inhibitor, partial curve, poor fit]"}
{"smiles": "CCCNC(=O)Cn1nc(C(F)(F)F)cc1C", "Potency": "inactive"}
{"smiles": "c1ccc(-c2ccc3ccccc3n2)cc1", "Potency": "inactive"}
{"smiles": "COc1ccc(NC(=O)c2ccc(CN3CCc4ccccc4C3)cc2)c(OC)c1", "Potency": "inconclusive [inhibitor, single point]"}
{"smiles": "CCOC(=O)[C@@H]1[C@H]2COc3cc(OC)ccc3[C@H]2N2C(=O)N(c3cccc(F)c3)C(=O)[C@@]12C", "Potency": "inconclusive [inhibitor, single point]"}
{"smiles": "N#Cc1ccc(N/N=C/c2ccccc2)c([N+](=O)[O-])c1", "Potency": "inconclusive [inhibitor, partial curve]"}
{"smiles": "CCC(CC)=NNc1ccc(S(N)(=O)=O)cc1[N+](=O)[O-]", "Potency": "inactive"}
{"smiles": "CCN(CC(=O)Nc1ccc(NC(C)=O)cc1)C(=O)c1cccc(-n2cccc2)c1", "Potency": "inconclusive [inhibitor, single point]"}
{"smiles": "CC(C)CCNC(=O)C(c1ccco1)N(Cc1ccc(F)cc1)C(=O)c1snc(C(N)=O)c1N", "note": "(centres undefined)", "Potency": "inconclusive [inhibitor, partial curve, poor fit]"}
{"smiles": "CN(Cc1ccco1)C(=O)c1ccc(CNS(=O)(=O)c2ccc3c(c2)C(C)(C)C(=O)N3C)cc1", "Potency": "inactive"}
{"smiles": "Cc1nc(-c2ccc(C)c(N3CCN(C(=O)Nc4ccccc4C(F)(F)F)CC3)c2)no1", "Potency": "inactive"}
{"smiles": "c1ccc(COc2nsnc2N2CCOCC2)cc1", "activity change, negative = growth inhibition": "inconclusive: -31.6% [inhibitor]"}
{"smiles": "CC(C)COC(=O)CCn1[nH]c(=O)c2ccccc2c1=O", "Potency": "inactive"}
{"smiles": "Cc1cc(C)nc(SCCCNCc2ccc(Br)cc2)n1", "Potency": "active: 20.6 µM"}
{"smiles": "CCOc1cc(C(N)=O)cc(Br)c1OC", "Potency": "active: 16.4 µM"}
{"smiles": "CCCN1C2CCCC1CC(NC(=S)Nc1ccc(OC)cc1)C2", "note": "(centres undefined)", "Potency": "active: 29.1 µM"}
{"smiles": "Cc1ccc(OCC(=O)Nc2ccc(O)c(-c3nc4cc(C)c(C)cc4o3)c2)cc1", "Potency": "active: 1.58 µM"}
{"smiles": "COCCNc1nc(NCc2ccccc2OC)c2sccc2n1", "Potency": "active: 16.4 µM"}
{"smiles": "Cc1cc2cc(CNC(=O)Cc3ccc([N+](=O)[O-])cc3)ccc2[nH]1", "Potency": "inconclusive [inhibitor, single point]"}
{"smiles": "Cc1nc(N/N=C/c2ccc(Br)cc2)cc(N2CCOCC2)n1", "Potency": "inconclusive [inhibitor, single point]"}
{"smiles": "COc1ccc2nc3c(cc2c1)c(NC(=O)c1cccs1)nn3CC(C)C", "Potency": "inconclusive [inhibitor, single point]"}
{"smiles": "COC(=O)[C@]12CCCCC=C1N(CCc1ccc(OC)c(OC)c1)C(=O)[C@H](CC(=O)N1CCSCC1)C2", "Potency": "inconclusive [inhibitor, single point]"}
{"smiles": "Cc1ccc2cc(CN(c3ccccc3C)S(=O)(=O)c3ccccc3)c(=O)[nH]c2c1", "Potency": "inconclusive [inhibitor, single point]"}
{"smiles": "CCOc1ccc(CN2CCN(C(=O)c3cccc(F)c3)CC2)cc1", "Potency": "inactive"}
{"smiles": "CCc1c(C#N)c(SCCC(=O)Nc2ccc(OC)cc2)nc2c1C(=O)CC(C)(C)C2", "Potency": "inconclusive [inhibitor, single point]"}
{"smiles": "Cc1cc(C(=O)N2CCCC(N3CCN(c4ccccc4C)CC3)C2)n(C)n1", "note": "(centres undefined)", "Potency": "inconclusive [inhibitor, partial curve, poor fit]"}
{"smiles": "Cc1cc(C(=O)N/N=C/c2ccc(O)c([N+](=O)[O-])c2)c(C)n1-c1ccc(F)cc1", "Potency": "inactive"}
{"smiles": "CCCOc1ccc(N2C(=O)CC(N(Cc3ccc(OC)cc3)C(=S)Nc3ccccc3)C2=O)cc1", "note": "(centres undefined)", "Potency": "inconclusive [inhibitor, partial curve]"}
{"smiles": "Cn1cc([N+](=O)[O-])c(C(=O)Nc2nc(-c3ccc(Cl)cc3)cs2)n1", "Potency": "inconclusive [inhibitor, single point]"}
{"smiles": "CCC(C)(C)n1nnnc1C(C(C)C)N(Cc1cccnc1)Cc1ccco1", "note": "(centres undefined)", "Potency": "inconclusive [inhibitor, single point]"}
{"smiles": "COc1ccc(CCC(=O)N2CCN(c3ccc([N+](=O)[O-])cc3)CC2)cc1OC", "Potency": "active: 14.6 µM"}
{"smiles": "CCOC(=O)C1(C(F)(F)F)N=C(c2ccccc2F)OC(N(C)C)=N1", "note": "(centres undefined)", "Potency": "inconclusive [inhibitor, single point]"}
{"smiles": "CCOC(=O)c1ccccc1NC(=O)COC(=O)c1ccccc1C(=O)N(C)c1ccccc1", "Potency": "inconclusive [inhibitor, single point]"}
{"smiles": "CCOC(=O)N1CCC(N2CCCC(C(=O)c3cc(F)ccc3OC)C2)CC1", "note": "(centres undefined)", "Potency": "inconclusive [inhibitor, partial curve, poor fit]"}
{"smiles": "Cc1ccccc1C1(O)c2ccccc2-c2ccccc21", "Potency": "active: 14.6 µM"}
{"smiles": "COc1cccc(NC(=O)Cn2cc(C=O)c3ccccc32)c1", "Potency": "active: 25.9 µM"}
{"smiles": "O=C(NCc1ccc2c(c1)OCO2)c1ccc(N2CCCCCC2)c([N+](=O)[O-])c1", "Potency": "inconclusive [inhibitor, single point]"}
{"smiles": "CCNc1nc(NCC)nc(N2CC(=O)N(CC(=O)OCC)C2=N)n1", "Potency": "inactive"}
{"smiles": "COc1ccc(Cl)cc1NC(=O)CN(C)C(=O)c1ccc2n[nH]nc2c1", "Potency": "inconclusive [inhibitor, single point]"}
{"smiles": "COc1cc(OC)cc(C(=O)NC(C(=O)NCc2ccccn2)C(C)C)c1", "note": "(centres undefined)", "Potency": "inconclusive [inhibitor, single point]"}
{"smiles": "CN(CC(=O)NC(=O)NC1CCCCC1)CC(=O)Nc1ccccc1C(F)(F)F", "Potency": "inconclusive [inhibitor, single point]"}
{"smiles": "CCN(CC(=O)Nc1ccc(NC(C)=O)cc1)C(=O)C1CC1", "Potency": "inactive"}
{"smiles": "CCCCn1c(N)c(N(CCOC)C(=O)c2cc(-c3ccc(F)cc3)nc3ccccc23)c(=O)[nH]c1=O", "Potency": "inactive"}
